In PMC10726135:
The list shows a part of the results. At the low end of the ranking the order means little. Measured with an extract: partners may take part in the binding.

What follows are sequences tested against T1, HNF4alpha8 (COS-7 nuclear extract) (UniProt P41235-5) (assay: protein-binding microarray). Details: COS-7 nuclear extract on double-stranded Agilent 4x180k PBM; binding buffer, salt, pH and temperature not given; high values mean tight binding; double strand, one strand shown; sequences stand for … in …GCCTAGGGAGATTAGAGTATCGGTCGA.
T1 sequence: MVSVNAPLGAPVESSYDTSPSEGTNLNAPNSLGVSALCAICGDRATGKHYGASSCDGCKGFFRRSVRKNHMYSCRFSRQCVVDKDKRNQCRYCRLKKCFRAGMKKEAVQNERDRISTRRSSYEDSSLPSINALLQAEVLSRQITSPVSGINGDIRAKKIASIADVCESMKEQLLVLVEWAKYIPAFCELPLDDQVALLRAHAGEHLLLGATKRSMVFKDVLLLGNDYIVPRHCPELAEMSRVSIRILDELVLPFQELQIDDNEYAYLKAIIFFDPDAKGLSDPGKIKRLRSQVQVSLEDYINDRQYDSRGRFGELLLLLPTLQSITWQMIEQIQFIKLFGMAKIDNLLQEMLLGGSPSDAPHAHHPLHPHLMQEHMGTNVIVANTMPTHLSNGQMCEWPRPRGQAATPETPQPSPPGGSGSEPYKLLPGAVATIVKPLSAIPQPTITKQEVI

Sequence	binding signal (log2 normalized intensity)
CCCCAGAGGTGGAATCTATAGAGGCAGTGA	-1.2
CAGAGACATGCTAGCCTCGAGATAACCCAC	-1.18
AATGACAGTGTCAGGACCTTGCTCCTGTTC	1.46
CCTATGGTATGTATGGAATGTCACTTTCTG	1.79
GGGCTAACGCTGCTGTCTGTCTTCGGGCGG	-1.15
CTATGTCCTTATCCTCATTGTGTGCAGACC	1.58
AGCAAACCTGTCTCTCTGCATTCCTCCTGG	0.684
GCATACAAAACAACCACTCTTATCAGACAG	-1.28
ATTGAATTAAACACAGTTGCCTATGCCCTT	2.38
ATACTATATTTGTCCCACATTAACTGTGCT	-1.26
TGGTGGCAATGTGTCAGAGAAGGAGCCAGA	-1.29
TGAAAGTCAACAAGATTCCTTGAGCATTCC	-1.36
CAGGTGAGAGGCCTCTAAGCATAACTGGTT	-1.29
TAGAGCTTTTGAGGGTGACCGATCGTTATT	1.48
TCAACATCAAAGGCCTTCCTATCTCTACTT	-1.4
CGCCTGCAGAAACTTTCTTTTTGTTGTTAG	1.19
TGTGCCCTCGGGTCCCACACACCTCAAATG	-1.12
ACTTCATTCAGGTAGCAGGCCTCAGAGATA	-1.36
CCCATCCCCAACAAAGCTCTGCATCCTTCC	1.28
CCTTGTCTAAGCCCTTATCAAAAAGATAAG	-1.22
TTGTTCTATTAACCTGGCCAAACACCAAAT	0.553
GAGGTCAAGATAAGATACGAAGGGTTTAAA	-0.273
GGTCAGCAATGGTAATTACCTTCTAGTGGT	-0.63
TGAGGAAGGCTCTTTGTTCAGAGGGCATGT	2.18

Sequence	binding signal (log2 normalized intensity)
GCGGTGCCATTCACAGGAATGTTGGCAGCA	-1.27
AAGAAGTCCAAGGACTTATCCTTGGGACAT	-1.31
ACCAAGCAAGCCAGTCAGAATCTCTCTGTA	-1.29
ACAGGGTGTGGCTTCCAAGGGGAATGTGGA	-0.512
TCTTTTTAATCAATAATCTTTGCCCTTGAA	3.49
GAGTCCAGTGAACAAAACATGGATTTTGGA	1.84
CTTTGGCTGCAAAATTTGAACAAAAAAAGA	-1.25
GCAAAGGTCAGCTCATTCCCTAGGGCTCGG	-0.991
GAAAGGAGAAGCTGGAGATAAGGATAGAGG	-1.37
GGCCAGTTTGATCACAAGACATGAAGATGC	-1.03
CTCAAAGTCTAACCCAACTAAGAACACAGT	1.24
CGAGCTTCACCTTTGTCCTCTCTCCCACAA	3.7
TTTATGACCTTTGACTGCAGAAGATAAGAA	4.5
TTGAAGATAATCACCCGATAAGCTGACCCC	6.25
TGAAATGGTTACAAAGGTCACACTCCTGTG	4.64
GTTCACTTGCCAAGCCTAGTTTTGATTATC	0.644
CTTAAGACCTAGATGGAATGTTGTGTCTTC	1.32
CTAGTTAAGTCACTGGGCTGATGACCTTTG	6.81
CCTCCAGGGAGGGGAGAGGGGGTTAAAGGT	1.84
ATCCTGCTAGCAGCTCTCTCCCTTATCTGA	-1.37
CGAACTAGCTTGGTGCAGGGGCGGGGCCGC	-1.19
GCGTGAGCCACCGCGCCCCGCCCCCAGTGC	5.57
GGTATGCATGGAATGCAGGAGATCCAGTAG	-0.791
ATGCGTCATCCGCATCTGAAGATAAGAGAA	-1.25

Sequence	binding signal (log2 normalized intensity)
TTCCGCGGACGTGTTCCCACAGTGCCCTCT	3.77
TTTTACAGACAGGCATGACAGAGTGTCCTG	0.341
ACCTCTGTAATAACTGCAGTGCCACTCGGG	-0.418
TGCGGAATGACATTCAGCAACTGGGTTCAG	1.64
TTCACCTTTGTCCTCTCTCCCACAAGGGCA	3.04
GGGGTCAAAGTCCCCTGAGCTTGAGTCCAT	6
CTGCCACATTTTTATCCTTTTTTGAAGGTT	2
TCCTGACAATTGGCCAAAGTTCAGTAAATC	3.61
AAACCTTTGCCCCACTCTCCTCTGCCACTG	2.85
ACTTTGCCTTTTGGCTAAAGTCCAAATTCC	6.01
ATAGGCACATATTGGATCTCTGGTATTTTG	1.41
CAAAATCGCCACTACAAAGGGAATCAGGTT	-1.35
ACCCAGATAGGCAAAGTGGCTAGGACCTTT	3.03
CTGATTCTGATTAGGTGGATTCGCCCAGCA	-1.06
AGTGGCTCCTAGAATTATCCCACCCCCAAT	4.37
CATTCAACTGACACTTGTTTGAATTGTGAT	1.35
AAAAACAGGTTCTGCAACACTTTCTAAGGA	-1.38
TGGAATGTCAAGATTGAGACATTCATGGCT	-1.07
GACTCAGAAAAATATGTGGACTTCAAAGGT	1.87
AGTGAGGGACAAGGCTGTCCCCCATCTCAT	1.5
AAGCTTGCTGATTACATAGGAGGCTGCCTC	-0.854
AAAGGTCATCGCACCGGCAGGGGAGAACTT	1.24
TTTCTGGGACCAAGGGTCAGTTCATTAAAA	2.94
TTGCTCAACCTGGACCTCATTAATAGGGCA	1.35

Sequence	binding signal (log2 normalized intensity)
AGCAAAGTTCAGAGAGGAATCGGCAGTTTG	-1.3
AGAACATTGCAGTGGCTCAGAGGTTATCTC	0.94
GACAAGGCTCTGGTGGGGAATGCTAGGACT	-1.23
TGCTGGTTTACAACATTCCTTTGTATTTTT	1.26
TAGACCTAGATAAGGGAGATGAAAGGGGCC	-1.39
GTGTGTGGTGTGTGTGTGTGTGTTTTGTGC	2.79
GGGGCATCCCTCGTAGGCAGGGCCAGATAA	-1.3
TCCTAAGGCCTTCAACTGATAAGAAGGGGC	-1.35
CCTGTCTCATCCTGTGACCAAGAATGCCTA	-1.11
ATAAGCCACGAGCCTGCCTGCTCCTCCTCG	-1.45
CACCGTAAATCACATTGTTAGCAGAAACCA	-1.22
GTGAGAAACATCCTGCCTAACCACCTGACC	-0.657
AAAGGGGCTAGGGCAAAGATCAAACATACA	2.64
TCTTATCTCACTGGATGTGTACCTCATCTT	1.14
ACCCTGTTGGTTTCTGGGATTTGTACAAGT	1.92
ACCTGATGTTTGGACAGTGTGACTCATCAA	0.849
AGACCCTTATCAGTAGTTCTCCTTTCTGCC	0.51
ACCCATTATGGCCACTGTGTGTGTGTGTGT	2.82
TTAAAGGCAAAGTCCAGAACCTGGAACCTA	2.97
CGTTCCCCGAGCGAGCTCCGTGCGGGAGGC	-1.19
CAAGTATTTTCAGCCACCTTTATCTGATCA	1.59
